# Results taken from PubChem BioAssay (Tox21).
# This list was built around the results that the source calls inconclusive (neither active nor inactive); the mix of calls is not that of the screen. For part of these data: Potencies of inconclusive entries are left out as doubtful fits. The source made the active and inactive calls. Unless noted, calls come from the whole dose curve; as a rule, active = well fitted curve in the direction sought with a large enough effect in the repeat runs; inconclusive = weak or mixed curves; inactive = no such curve, though single readings can be large; an effect the other way counts as inactive or inconclusive.
# Columns and labels:
# [1] = qHTS assay to identify small molecule agonists of the progesterone receptor (PR) signaling pathway - cell viability counter screen (AID 1346799; calls by dose curve; note: nearly all actives have a fitted effect of over 45% in size; note: potency is the fitted concentration of half-maximal effect)
# How it was run: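 Counter screen in the PR-UAS-bla HEK293T wells (2% charcoal-stripped FBS, 16 h compound exposure at 37 C) after the bla read. CellTiter-Glo added, 30 min at room temperature, luminescence read as cell viability.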
# [2] = target: Nuclear receptor subfamily 1 group I member 2 (Homo sapiens) (UniProt O75469); assay: Human pregnane X receptor (PXR) small molecule agonists, qHTS assay (AID 1346982); note: nearly all actives have a fitted effect of over 35% in size; note: potency is the fitted concentration of half-maximal effect; for activation: % is set by controls: 0 for no effect and ±100 for the full control effect
# UniProt O75469, sequence (O75469 whole entry, looked up): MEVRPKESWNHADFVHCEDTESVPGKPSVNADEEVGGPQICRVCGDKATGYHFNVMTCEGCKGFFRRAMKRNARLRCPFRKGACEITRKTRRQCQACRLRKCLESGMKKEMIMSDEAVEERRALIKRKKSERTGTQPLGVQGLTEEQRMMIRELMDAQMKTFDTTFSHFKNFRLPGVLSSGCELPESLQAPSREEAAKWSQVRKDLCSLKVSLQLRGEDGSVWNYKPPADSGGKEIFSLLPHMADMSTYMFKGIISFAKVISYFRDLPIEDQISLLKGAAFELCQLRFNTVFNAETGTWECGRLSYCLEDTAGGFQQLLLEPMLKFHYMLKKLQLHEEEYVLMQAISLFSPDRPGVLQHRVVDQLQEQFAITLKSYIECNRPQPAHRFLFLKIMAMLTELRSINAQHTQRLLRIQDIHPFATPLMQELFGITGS
# How it was run: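 Reporter HepG2 cells expressing PXR-Luc are cultured in charcoal-stripped FBS (5%), treated with compounds for 24 hr at 37 C, and assayed by ONE-Glo luminescence after 30 min at room temperature.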
# [3] = target: Cytochrome P450 2C9 (Homo sapiens) (UniProt P11712); assay: Cytochrome P450 Family 2 Subfamily C Member 9 (CYP2C9) small molecule antagonists: luciferase reporter qHTS assay (AID 1671198); note: nearly all actives have a fitted effect of over 50% in size; note: potency is the fitted concentration of half-maximal effect
# UniProt P11712, sequence (P11712 whole entry, looked up): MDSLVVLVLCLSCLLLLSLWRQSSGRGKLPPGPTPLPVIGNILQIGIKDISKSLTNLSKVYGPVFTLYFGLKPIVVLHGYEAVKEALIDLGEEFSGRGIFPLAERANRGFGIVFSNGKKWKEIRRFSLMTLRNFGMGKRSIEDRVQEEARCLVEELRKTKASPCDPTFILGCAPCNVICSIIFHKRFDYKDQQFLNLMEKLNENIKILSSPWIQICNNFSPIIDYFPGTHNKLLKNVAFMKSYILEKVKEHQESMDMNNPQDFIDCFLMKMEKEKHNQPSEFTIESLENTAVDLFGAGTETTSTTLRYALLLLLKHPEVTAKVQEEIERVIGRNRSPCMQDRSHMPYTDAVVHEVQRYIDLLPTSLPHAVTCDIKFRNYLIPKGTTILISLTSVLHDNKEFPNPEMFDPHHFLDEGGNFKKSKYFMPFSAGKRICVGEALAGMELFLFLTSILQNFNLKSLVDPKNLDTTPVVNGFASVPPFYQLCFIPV
# How it was run: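 CYP2C9 activity was measured with a P450-Glo proluciferin substrate. Enzyme–substrate mix was held with compound for 10 min at room temperature, then NADPH regeneration solution was added for 1 h at 37C. Luciferin product was read as luminescence.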
# [4] = target: Cytochrome P450 2D6 (Homo sapiens) (UniProt P10635); assay: Cytochrome P450 Family 2 Subfamily D Member 6 (CYP2D6) small molecule antagonists: luciferase reporter qHTS assay (AID 1671196); note: nearly all actives have a fitted effect of over 50% in size; note: potency is the fitted concentration of half-maximal effect
# UniProt P10635, sequence (P10635 whole entry, looked up): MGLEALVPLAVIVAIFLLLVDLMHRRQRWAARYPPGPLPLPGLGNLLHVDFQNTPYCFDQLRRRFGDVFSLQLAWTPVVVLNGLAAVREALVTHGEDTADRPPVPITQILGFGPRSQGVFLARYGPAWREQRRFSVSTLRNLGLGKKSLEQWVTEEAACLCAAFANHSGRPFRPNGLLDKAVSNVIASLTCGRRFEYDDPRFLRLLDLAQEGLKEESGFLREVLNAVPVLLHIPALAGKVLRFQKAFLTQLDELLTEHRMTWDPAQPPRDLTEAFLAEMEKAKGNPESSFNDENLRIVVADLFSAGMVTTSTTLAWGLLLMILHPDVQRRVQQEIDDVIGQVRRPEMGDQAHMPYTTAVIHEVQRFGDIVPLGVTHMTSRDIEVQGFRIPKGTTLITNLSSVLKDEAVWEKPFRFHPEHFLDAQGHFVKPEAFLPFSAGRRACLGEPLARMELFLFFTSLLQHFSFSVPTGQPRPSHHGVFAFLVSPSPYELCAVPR
# How it was run: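 Test chemicals meet CYP2D6 plus proluciferin substrate (10 min, RT); NADPH regenerating solution then drives turnover for 1 h. Detection reagent halts the reaction; luminescence measured after 20 min.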
# [5] = target: Nuclear receptor subfamily 1 group I member 2 (Homo sapiens) (UniProt O75469); assay: Human pregnane X receptor (PXR) activation by small molecules, qHTS assay (AID 1346985); note: % is set by controls: 0 for no effect and ±100 for the full control effect; nearly all actives have a fitted effect of over 40% in size
# How it was run: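 DPX-2 cells (HepG2 co-transfected with a PXR response element and a CYP3A4-promoter luciferase construct) were seeded at 2,000 per well, rested 5 hr at 37C, then exposed to DMSO-dissolved compounds for 24 hr. Activation was read as luciferase luminescence.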
# [6] = target: Nuclear receptor subfamily 1 group I member 2 (Rattus norvegicus) (UniProt Q9R1A7); assay: Rat pregnane X receptor (rPXR) activation by small molecules, qHTS assay (AID 1346983); details: rPXR luciferase reporter cells, One-Glo luminescence, 24 h; max activation: hits give high values; note: % is set by controls: 0 for no effect and ±100 for the full control effect; nearly all actives have a fitted effect of over 20% in size
# UniProt Q9R1A7, sequence (Q9R1A7 whole entry, looked up): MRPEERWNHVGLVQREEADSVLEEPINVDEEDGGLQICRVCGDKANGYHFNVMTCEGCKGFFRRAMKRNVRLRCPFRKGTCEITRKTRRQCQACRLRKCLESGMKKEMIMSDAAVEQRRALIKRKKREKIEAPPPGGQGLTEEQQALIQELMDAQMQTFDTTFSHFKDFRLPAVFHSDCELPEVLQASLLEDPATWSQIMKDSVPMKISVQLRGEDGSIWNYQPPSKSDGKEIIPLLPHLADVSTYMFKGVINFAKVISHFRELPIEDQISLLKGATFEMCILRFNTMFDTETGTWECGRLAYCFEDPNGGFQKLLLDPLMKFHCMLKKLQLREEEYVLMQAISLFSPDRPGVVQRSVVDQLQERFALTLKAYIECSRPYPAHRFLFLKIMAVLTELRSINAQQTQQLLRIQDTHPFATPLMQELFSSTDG
# How it was run: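 Cell-based rPXR luciferase reporter assay, 2,000 cells per well, rested 5hr at 37 C before compound addition in DMSO, then 24 hr at 37 C. One-Glo reagent was added and luminescence read after 30 min at room temperature.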
# [7] = Caspase-3/7 induction in HepG2 cells by small molecules, qHTS cell viability counter screen (AID 1346981); note: potency is the fitted concentration of half-maximal effect; nearly all actives have a fitted effect of over 30% in size
# How it was run: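 In this quantitative HTS counter screen, compounds delivered in DMSO were left on unmodified HepG2 cells for 16 hr at 37 C. Viability was then determined fluorometrically with CellTiter-Fluor, in parallel with caspase-3/7 induction in the same wells.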
# [8] = target: Cytochrome P450 2C19 (Homo sapiens) (UniProt P33261); assay: Cytochrome P450 Family 2 Subfamily C Member 19 (CYP2C19) small molecule antagonists: luciferase reporter qHTS assay (AID 1671197); note: potency is the fitted concentration of half-maximal effect; nearly all actives have a fitted effect of over 65% in size
# UniProt P33261, sequence (P33261 whole entry, looked up): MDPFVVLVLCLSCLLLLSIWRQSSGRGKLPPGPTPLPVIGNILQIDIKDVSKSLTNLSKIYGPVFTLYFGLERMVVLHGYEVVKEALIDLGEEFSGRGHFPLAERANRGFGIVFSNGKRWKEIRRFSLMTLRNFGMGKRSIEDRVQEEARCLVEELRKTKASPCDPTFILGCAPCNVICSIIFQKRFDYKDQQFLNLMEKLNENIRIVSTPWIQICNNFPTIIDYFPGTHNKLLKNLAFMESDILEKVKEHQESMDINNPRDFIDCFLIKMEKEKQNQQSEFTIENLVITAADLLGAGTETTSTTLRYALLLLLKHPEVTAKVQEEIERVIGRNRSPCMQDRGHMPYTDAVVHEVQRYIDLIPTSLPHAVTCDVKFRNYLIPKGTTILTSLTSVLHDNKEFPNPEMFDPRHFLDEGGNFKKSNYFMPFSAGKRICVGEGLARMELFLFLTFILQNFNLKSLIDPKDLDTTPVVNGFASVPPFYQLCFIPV
# How it was run: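 Enzyme-substrate mix with proluciferin substrate (P450-Glo CYP2C19 system) preincubated with compounds 10 min at room temperature; NADPH regeneration solution added, 37C for 1 h; detection reagent stops reaction, luminescence read after 20 min. Ketoconazole positive control.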
# Tags give direction and shape of the fitted curve.
smiles,measurement,setting,value
Cc1cccc(C(=O)O)c1O,Potency,[1],"inconclusive [cytotoxic, single point]"
same,Potency,[2],inactive
same,Potency,[3],inactive
COc1cc(S(=O)(=O)Nc2ccccc2)c(OC)cc1N,Potency,[1],"inconclusive [cytotoxic, single point]"
same,Potency,[4],inconclusive [inhibitor]
CCCOC(=O)c1ccccc1,Potency,[1],"inconclusive [cytotoxic, full curve, poor fit]"
same,Potency,[5],inactive
same,Potency,[3],"inconclusive [inhibitor, partial curve]"
CCCCCN(CCCOC)C(=O)C(CCC(=O)O)NC(=O)c1ccc(Cl)c(Cl)c1 (centres undefined),Potency,[1],"inconclusive [cytotoxic, full curve, poor fit]"
same,Potency,[4],inactive
NC(=O)NS(=O)(=O)c1ccc(N)cc1,Potency,[1],inactive
same,max activation,[6],inactive: -4.58%
CC1CCc2nccnc21 (centres undefined),Potency,[1],inactive
same,Potency,[7],"inconclusive [rising, single point]"
CN(C)CCCOC1(Cc2ccccc2)CCCCCC1,Potency,[1],inconclusive [cytotoxic]
same,Potency,[2],"inconclusive [activator, single point]"
same,Potency,[8],"inconclusive [inhibitor, single point]"
CCN(CC)CCNC(=O)c1cc(Cl)c(N)cc1OC,Potency,[1],inactive
same,Potency,[4],active: 7.76 µM
Cc1cccc2sc(N)nc12,Potency,[1],"inconclusive [rising, single point]"
same,Potency,[4],"inconclusive [inhibitor, partial curve]"
C=CC(=O)O,Potency,[1],"inconclusive [rising, partial curve, poor fit]"
same,Potency,[8],"inconclusive [inhibitor, single point]"
same,Potency,[3],"inconclusive [inhibitor, partial curve, poor fit]"
